# Source: PubChem BioAssay AID624296 (National Center for Advancing Translational Sciences (NCATS), 2012)
# Out of some 350,000 compounds screened, about 9,900 (2.8%) were called active. This list was built around the results that the source calls inconclusive (neither active nor inactive); the mix of calls is not that of the screen. Calls come from the whole dose curve; as a rule, active = well fitted activation curve with a large enough effect; inconclusive = small, poorly fitted or top-dose-only effect; inactive = no such curve, though single readings can be large or run the other way. No potency is given beside an inconclusive call; the fits are too rough.
# Assay: A quantitative high throughput screen for small molecules that induce DNA re-replication in MCF 10a normal breast cells. Note: nearly all actives have a fitted effect of over 50% in size.
# Settings: MCF 10A DNA re-replication, Hoechst nuclear intensity, 48 h; series mostly up to 46.1 µM
# Potency is the fitted concentration of half-maximal effect; tags give direction and shape of the fitted curve.
row,SMILES,Potency
1,O=C(Nc1ccc2c(c1)OCCO2)c1ccccc1F,"inconclusive [activator, single point]"
2,COc1ccc(C(=O)Nc2ccccc2C(=O)NCc2ccco2)cc1,inactive
3,CCOc1ccc(S(=O)(=O)NCCC(=O)N2CC=C(c3ccccc3)CC2)cc1,"inconclusive [activator, single point]"
4,COc1ccc(-[n+]2c(C)cc(/C=C3\Sc4ccccc4N3C)cc2C)cc1,"inconclusive [activator, partial curve, poor fit]"
5,CCOC(=O)c1[nH]c(C)c(C(=O)OCC(=O)Nc2sc3c(c2C#N)CCCCC3)c1C,"inconclusive [activator, full curve]"
6,Fc1ccc(COc2cccc(CNCc3ccncc3)c2)cc1,"inconclusive [activator, single point]"
7,CCOc1c(OC)cccc1C1CC(=O)Nc2cc3c(cc21)OCCO3 (centres undefined),"inconclusive [activator, single point]"
8,CCc1ccc(NC(=O)CC2C(=O)NCCN2C(=O)c2ccc(F)cc2)cc1 (centres undefined),"inconclusive [activator, full curve, poor fit]"
9,CCOC(=O)c1sc(NC(=O)CSc2nc3c(cc2C#N)CCCCCC3)c(C#N)c1C,"inconclusive [activator, full curve, poor fit]"
10,COc1ccc2c(CC(=O)NNC(=O)c3ccc(O)cc3)coc2c1,inactive
11,O=c1c2ccc(Cl)cc2nc(-c2cccc(C(F)(F)F)c2)n1O,"inconclusive [activator, full curve]"
12,COc1cccc(C(=O)Nc2nc(SCc3ccc(Cl)cc3)n[nH]2)c1,"inconclusive [activator, single point]"
13,CC(NCC(O)COc1ccc(S(=O)(=O)N2CCOCC2)cc1)c1ccccc1 (centres undefined),inactive
14,CCc1cc(Cn2nc(-c3ccccc3)cc2C(=O)NCc2cccs2)on1,"inconclusive [activator, full curve, poor fit]"
15,Cc1ccc(-c2csc3nc(C)n(-n4c(C)ccc4C)c(=O)c23)o1,"inconclusive [activator, single point]"
16,Cc1ccc2c(c1)nnc1nnc(SCC(=O)O)n12,"inconclusive [activator, single point]"
17,N#CCc1nc(C(c2ccccc2)c2ccccc2)no1,"inconclusive [activator, partial curve, poor fit]"
18,CCN1C(=O)c2cccc3c(S(=O)(=O)Nc4ccccc4OC)ccc1c23,"inconclusive [activator, single point]"
19,S=C(NCc1ccco1)Nc1cc(Cl)c(Cl)cc1Cl,"inconclusive [activator, partial curve, poor fit]"
20,O=C(N/N=C/c1sc(N2CCOCC2)nc1-c1ccccc1)c1ccccc1F,"inconclusive [activator, single point]"
21,COc1cc2c(cc1NC(=O)Nc1ccccc1)oc1ccccc12,"inconclusive [activator, single point]"
22,CCc1noc(C)c1C(=O)OC(C)C(=O)Nc1cc([N+](=O)[O-])ccc1OC (centres undefined),inactive
23,O=C(Nc1nccs1)c1sc2ccccc2c1Cl,"inconclusive [activator, single point]"

row,SMILES,Potency
1,CC(=O)Nc1ccc(S(=O)(=O)N(C)CC(=O)Nc2nc3ccccc3[nH]2)cc1,inactive
2,O=[N+]([O-])c1cccc(-c2cn3nc(-c4ccccc4)c(-c4ccccc4)nc3n2)c1,"inconclusive [activator, partial curve, poor fit]"
3,COc1cccc(C(=O)NCC(c2ccco2)N2CCOCC2)c1 (centres undefined),inactive
4,Cc1ccc(C)c(S(=O)(=O)NCCOc2nc(NC(C)C)nc(NC(C)C)n2)c1,"inconclusive [activator, single point]"
5,Cc1ccc(NC(=O)CN2C(=O)c3ccccc3S2(=O)=O)cc1C,"inconclusive [activator, single point]"
6,CC(C)N(C(=O)[C@H]1C[C@H](CC(=O)NCCN2CCOCC2)C(=O)N2CCc3c([nH]c4ccc(Cl)cc34)[C@]12C)C(C)C,"inconclusive [activator, partial curve, poor fit]"
7,CCCCCn1c(-c2ccco2)nc2nc3ccccc3nc21,"inconclusive [activator, single point]"
8,C/C(=N\NC(=O)Cc1c[nH]c2ccccc12)c1ccc2ccccc2c1,"inconclusive [activator, single point]"
9,O=C(O)c1ccc(N2N=C(c3ccccc3)CC2c2ccccc2)cc1 (centres undefined),active: 2.31 µM
10,CCOc1ccc(-c2cnc(NCc3cccc4ccccc34)n2CCOC)cc1,"inconclusive [activator, single point]"
11,Cn1nc(C(=O)OCC(=O)N(Cc2ccccc2)C(C)(C)C)c2ccccc2c1=O,inactive
12,CC(C)(C#CC(O)(c1ccccc1)c1ccccc1)N1CCCC1,active: 0.82 µM
13,O=S1(=O)c2ccc(Br)cc2N2CC[C@H](C2)N1Cc1ccc(Cl)cc1,active: 3.26 µM
14,O=C(NCc1cccnc1)c1ccc(Cn2c(=S)[nH]c3ccc(Br)cc3c2=O)cc1,"inconclusive [activator, single point]"
15,CCOC(=O)c1cc2c(ccc3nc(C)c(C)c32)[nH]c1C,active: 14.6 µM
16,COc1cc(CNC[C@H]2O[C@@H](n3cnc(C(N)=O)n3)[C@H](O)[C@@H]2O)ccc1OCc1cccc(Cl)c1,"inconclusive [activator, full curve]"
17,COc1ccc(OC)c(NC(=O)Nc2ccccc2C)c1,"inconclusive [activator, partial curve, poor fit]"
18,O=C(NCc1ccco1)c1cc2nc(-c3cccs3)cc(C(F)(F)F)n2n1,"inconclusive [activator, partial curve, poor fit]"
19,CCOc1ccc(OCCOC(=O)CN(C)S(=O)(=O)c2ccc(NC(C)=O)cc2)cc1,inactive
20,O=C1CC2c3ccccc3C1C1C(=O)N(CCc3ccccc3)C(=O)C21 (centres undefined),inactive
21,O=C(CBr)Nc1c2c(nn1-c1ccccc1)CSC2,inactive
22,COc1ccc(NC(=O)N2CCCC2C(=O)NCCc2ccccc2)cc1 (centres undefined),inactive
23,CCC1=NN(C(=O)C(=O)NCCc2ccccc2)C(O)(C(F)(F)F)C1 (centres undefined),inactive

row,SMILES,Potency
1,Cc1cc(C(=O)CSc2nnc(-c3ccc(F)cc3)o2)c(C)n1CC1CCCO1 (centres undefined),inactive
2,N#Cc1cccc2c1-c1ccccc1/C2=N/NC(N)=S,"inconclusive [activator, single point]"
3,Cc1cc(Cl)c2oc(C(=O)N3CCN(c4cccc(C)n4)CC3)c(C)c2c1,"inconclusive [activator, single point]"
4,COc1ccc(Cl)cc1NC(=O)CNc1ccccc1F,"inconclusive [activator, single point]"
5,CCOC(=O)c1c(CC(C)C)csc1N,"inconclusive [activator, partial curve, poor fit]"
6,Nn1c(Nc2ccccc2)nc2sc3c(c2c1=O)CCC3,"inconclusive [activator, partial curve, poor fit]"
7,O=C(CC1CCCC1)N1CCCC(Nc2cccc(F)c2)C1 (centres undefined),"inconclusive [activator, single point]"
8,CC/C=C\C/C=C\C/C=C\CCCCCCCC(=O)O,"inconclusive [activator, single point]"
9,CC(C)=C1C2CCC1C1C(=O)N(c3nc(-c4ccc(C(C)C)cc4)c(C)s3)C(=O)C21 (centres undefined),"inconclusive [activator, partial curve]"
10,C=C[C@@]1(C)CCC(/C(C)=C/C=C/C(C)(C)O)C[C@@H]1C(=C)C (some centres undefined),"inconclusive [activator, partial curve, poor fit]"
11,CN1CCN(C(=O)C2=C[C@H](c3ccc(C(F)(F)F)cc3)C[C@H](OCCCCO)O2)CC1,"inconclusive [activator, single point]"
12,Cc1cc(OCC(=O)c2cccc(C(F)(F)F)c2)n2cnnc2n1,inactive
13,COCCCNC(=O)C1=CCN(S(=O)(=O)c2ccc(C)cc2)CC1,"inconclusive [activator, partial curve, poor fit]"
14,COc1ccccc1NC(=O)CN(Cc1ccco1)C(=O)c1ccc(Cl)nc1,"inconclusive [activator, single point]"
15,CCc1ccc(NCc2nc3ccccc3c(=O)[nH]2)cc1,inactive
16,Cc1ccc(Cn2c(SCCN3CCCCC3)nc3c2c(=O)n(C)c(=O)n3C)cc1,"inconclusive [activator, full curve, poor fit]"
17,CN(C)C(CNC(=O)CNC(=O)Cc1cccc2ccccc12)c1ccccc1 (centres undefined),inactive
18,Clc1cccc(CSc2nnc(-c3cccnc3)n2Cc2ccco2)c1,inactive
19,CCN(CC)CCNc1nc2c(c(=O)n(C)c(=O)n2C)n1C/C=C(/C)Cl,active: 16.4 µM
20,Cc1cc(C)c2nc(-c3ccccn3)cc(C(=O)Nn3cnnc3)c2c1,"inconclusive [activator, single point]"
21,CCc1ccc(C2=NN(C(=O)OC)C(O)(C(F)(F)F)C2)cc1 (centres undefined),inactive
22,CC(=O)Nc1sc(N/N=C/c2ccc(C)cc2)nc1-c1ccc(C)cc1,inactive
23,COc1ccc(-n2c(C)nn(C)c2=O)c(OC)c1,inactive
